Values marked as one replicate rest on one cluster of the flow cell; about a third of the high ones do not repeat.
Each sequence was assayed on ATP (assay: switch fluorescence ratio, 500 uM ATP over buffer (Cy3 cluster intensity, sum of 5 cycles each) (fold (ratio)); higher = stronger signal-on switching upon ATP binding; sequences stand for … in TCGTCGGCAGCGTCAGATGTGTATAAGAGACAGTTTTTTTTTTTTTTTTTTTTTTTTT…TC). Conditions: aptamer strand: ATP DNA aptamer (quencher-CACCTGGGGGAGTATTGCGGAGGAAGG + anchor), 100 nM annealed; ATP concentration: 500 uM; one replicate.
Outline: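 The quencher-labelled ATP aptamer, at 100 nM, was annealed to Cy3-labelled switching-strand clusters on a modified Illumina MiSeq flow-cell. The clusters were imaged in selection buffer, then after 15 min with 500 uM ATP at 22 °C, and this buffer/ATP cycle ran five times with NaOH stripping and re-annealing between runs. Per-cluster fluorescence ratios, summed target-cycle over summed buffer-cycle Cy3 intensity, were averaged per switch-domain sequence. Clusters outside 100-1000 RFU were excluded.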
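Note: ATP exposure 15 min at 22 °C before imaging.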

Row | Sequence | switch fluorescence ratio
1 | GCGGGACTCT | 0.987
2 | GGCGATCGGT | 1.05
3 | TGAATCCG | 1.02
4 | TAAAAAGGAG | 0.954
5 | AGGTGCTTAG | 1.04
6 | CCTAGTTTGC | 1.05
7 | ATTGATGTAA | 0.97
8 | AGTCACGCGT | 1.03
9 | TCGTACTGTA | 1.08
10 | ATCTCACTCT | 1.05
11 | ATATCTGGTC | 0.904
12 | CCGATTCGGA | 0.981
13 | ACCCAATGTC | 1.24
14 | GAATATACAT | 1.01
15 | TGTGTCGG | 0.994
16 | CGTGACCTTC | 1.19
17 | CTCAGCGGTG | 1.05
18 | CGACGTGGGG | 1.07
19 | TAACCCGAGG | 1.03
20 | TATAGAGGTG | 1.09
21 | CGATTGAAAG | 1.02
22 | ACGCAGAGCC | 1.13
23 | GGGACTCTGG | 0.943
24 | CGTCTGGTCG | 1.04
25 | AACTACATCT | 1.07

Row | Sequence | switch fluorescence ratio
26 | GCTTTAAACT | 0.953
27 | GTGACACGA | 1.02
28 | TCCGTGAAAT | 1.07
29 | TTTTGCCTGG | 1.27
30 | GAGATCTATA | 1.01
31 | ATACCGGGTA | 1.04
32 | GTTGCCGCGG | 1
33 | GTAGCAGCA | 1.14
34 | GTAATGCCTT | 1
35 | CTCACTTTGA | 0.983
36 | TTGTACACAC | 1.36
37 | ACTTCAGCTG | 0.971
38 | CAGGAAGCCG | 1.06
39 | TCCGGTGAAG | 1.01
40 | CGTTATGGAA | 0.942
41 | TTCCTTAATA | 0.993
42 | ATTTATTGAC | 1.03
43 | CCACTGGATA | 1.04
44 | CCGAAGGTAG | 1.12
45 | GCCCGAAGTG | 1.02
46 | AAACTCTTTG | 1
47 | TTACGCAAGG | 1.64
48 | AGGTGACATT | 1.14
49 | AATTACCCAG | 1
50 | AAGAATTTAT | 1

Row | Sequence | switch fluorescence ratio
51 | GGTGGATTA | 0.978
52 | CCGCACCATA | 3.51
53 | CGTAGGGTGC | 1.1
54 | CTAATAATAA | 1
55 | GATATCGACC | 1.07
56 | CATTGTGTTC | 1.06
57 | GACGAGTGGG | 1.07
58 | CAAGCTTAGC | 1.02
59 | AGCGGTATTT | 0.972
60 | ACCAGGTCTC | 1.06
61 | CTGAACTTC | 1.1
62 | GCGTTGAGAT | 0.977
63 | GTTCAATCTG | 0.967
64 | TCGCTGCAAG | 1
65 | GAAATGTCAA | 0.969
66 | TCTTAATAGC | 1.04
67 | GGACCCGAGA | 0.952
68 | ACAAGGGAGG | 0.993
69 | GCTGACATAG | 1
70 | ACTGGGCCAC | 1.08
71 | GATGTGCTAT | 1.02
72 | GACACTGGTC | 0.983
73 | AAAGACGTGC | 0.938
74 | TTTTGTTCCG | 1.02
75 | TACTCGGCAC | 3.89

Row | Sequence | switch fluorescence ratio
76 | TACCCTCAAC | 1.58
77 | GCCATAAGCG | 1
78 | GGTCGAGTGA | 0.989
79 | GAGACGCTAT | 1.24
80 | GTTTATGTCG | 0.998
81 | GTATCTCATT | 1.02
82 | GCCGCTTCGG | 1.03
83 | TCAAGGAAAG | 0.992
84 | AGTGAGGGCA | 1.09
85 | AAAGCAGCGG | 1.01
86 | TTGAGTATAG | 1
87 | AGGGGACGTG | 0.968
88 | GGCCTAGCTA | 1.01
89 | TAGCGGCAGA | 1.07
90 | AACGATTGTT | 1
91 | GACCGCCTTC | 1.06
92 | GCCGAAGTCT | 1.01
93 | CCGGGGTTGC | 1.07
94 | TTATTTGAGG | 0.973
95 | CTCCGGACGG | 1.08
96 | TTGATGGGGG | 0.99
97 | TATGTCTCAC | 1.03
98 | CGGTTGGACG | 1.08
99 | ATTGGCGATC | 0.99
100 | AAACGTCTTT | 0.998

Source: the supplement of paper PMC10126150
